Experimental data taken from publication PMC4336329 (PLoS ONE, 2015).
Among all 310,000 compounds or so, about 2,200 (0.71%) showed an effect of 50% or more. Effects have a minus sign here. The list shows a part of the results.

target: human ether-à-go-go-related gene (hERG) potassium channel (human, UniProt Q12809); test: primary screen, population patch clamp on CHO cells stably expressing hERG
Sequence (Q12809 whole entry, looked up): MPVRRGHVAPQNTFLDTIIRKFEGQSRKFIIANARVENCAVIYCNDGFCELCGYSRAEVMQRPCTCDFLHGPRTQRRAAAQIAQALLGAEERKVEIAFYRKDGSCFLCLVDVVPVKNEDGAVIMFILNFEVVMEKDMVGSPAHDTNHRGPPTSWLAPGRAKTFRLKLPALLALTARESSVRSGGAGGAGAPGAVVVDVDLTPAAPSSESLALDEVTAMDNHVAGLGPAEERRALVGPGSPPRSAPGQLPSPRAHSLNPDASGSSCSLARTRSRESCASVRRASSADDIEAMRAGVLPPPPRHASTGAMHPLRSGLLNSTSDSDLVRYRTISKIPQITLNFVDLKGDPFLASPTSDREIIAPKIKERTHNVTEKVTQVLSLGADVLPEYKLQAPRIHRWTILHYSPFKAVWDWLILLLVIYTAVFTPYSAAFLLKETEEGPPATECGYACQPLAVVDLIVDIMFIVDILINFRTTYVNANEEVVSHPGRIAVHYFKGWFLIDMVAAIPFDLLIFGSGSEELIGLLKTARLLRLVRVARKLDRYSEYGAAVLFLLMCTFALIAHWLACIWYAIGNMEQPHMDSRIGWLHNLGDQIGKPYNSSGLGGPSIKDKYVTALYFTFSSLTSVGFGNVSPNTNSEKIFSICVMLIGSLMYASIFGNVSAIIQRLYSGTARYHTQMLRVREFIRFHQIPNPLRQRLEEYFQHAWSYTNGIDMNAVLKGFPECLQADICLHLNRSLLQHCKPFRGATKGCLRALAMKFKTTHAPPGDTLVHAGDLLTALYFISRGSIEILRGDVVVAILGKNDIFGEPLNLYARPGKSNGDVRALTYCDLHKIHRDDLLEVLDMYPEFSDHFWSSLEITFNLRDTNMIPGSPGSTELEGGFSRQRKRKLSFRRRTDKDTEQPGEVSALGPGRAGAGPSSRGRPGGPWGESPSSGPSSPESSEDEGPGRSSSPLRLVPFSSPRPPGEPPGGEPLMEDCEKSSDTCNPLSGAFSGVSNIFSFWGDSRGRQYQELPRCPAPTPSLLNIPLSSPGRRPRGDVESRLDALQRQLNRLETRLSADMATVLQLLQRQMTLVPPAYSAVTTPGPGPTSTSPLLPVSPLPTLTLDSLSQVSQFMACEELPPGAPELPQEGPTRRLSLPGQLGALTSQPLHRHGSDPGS

SMILES	hERG current change (%, negative = inhibition) at 1uM
COc1ccc(S(=O)(=O)N2CCCN(CC(=O)Nc3ccc4c(c3)OCO4)CC2)cc1	-15.1%
Cc1ccc(C(=O)Nc2cccc(S(=O)(=O)N3CCCCC3)c2)cc1[N+](=O)[O-]	2.01%
CC(=O)c1sc(N/N=C/c2ccc(C(C)C)cc2)nc1C	15.4%
Cc1nn(-c2ccccc2)c(C)c1C(=O)Nc1nnc(-c2ccco2)o1	-5%
CC(=O)c1c(Cl)nc2ccc(Br)cc2c1-c1ccccc1	21.9%
COc1ccc2oc(=O)c(NC(=O)C3CCCCC3)cc2c1	5.32%
Cc1ccc(NC(=S)NC(=O)/C=C/c2ccco2)c(O)c1	5.75%
CCc1ccc(-c2cc(C)no2)cc1S(=O)(=O)N1CCN(c2ccc(C(C)=O)cc2)CC1	4.82%
Brc1ccc(C2Nc3cccc4cccc(c34)N2)o1	18.5%
C/C(=C\[C@@H](NP(=O)(c1ccccc1)c1ccccc1)c1ccccc1)CO[Si](c1ccccc1)(c1ccccc1)C(C)(C)C	9.91%
Cl.c1csc(CNCc2ccncc2)c1	-5.42%
COc1ccc(Cn2c(C3CC3)nc3ccc(NC(=O)c4cccnc4)cc3c2=O)cc1	-4.92%
COc1ccc(-n2c(=O)c3ccccc3n(Cc3ccc(F)cc3)c2=O)cc1OC	21.2%
CC(Sc1cccc[n+]1[O-])C(=O)Nc1cccc(S(=O)(=O)N2CCOCC2)c1 (centres unmarked)	9.93%
Cn1c(=O)c2c(ncn2Cc2ccc(Cl)c(Cl)c2)n(C)c1=O	13.2%
O=C(O)CCC(=O)NN1C(=O)c2ccccc2NC1c1ccco1 (centres unmarked)	17.1%
Cc1ccc(-c2nc3cc(C)ccc3o2)cc1	15.8%
COC(=O)CC1Oc2ccccc2N(Cc2ccc(C)cc2)C1=O (centres unmarked)	3.03%
CC(=O)c1c(N)[nH]c(-c2ccccc2)nc1=S	0.135%
COc1ccc(C(C(=O)NC(C)(C)C)N(C(=O)Cn2nnc3ccccc32)c2cccc(C(C)=O)c2)cc1O (centres unmarked)	0.152%
COC(=O)N[C@@H]1C[C@H]2[C@@H]3CC[C@H]4C[C@@H](OC)CC[C@]4(C)[C@H]3CC[C@]12C	17.1%
COc1ccc(Nc2nc(C)nc3c2oc2ccccc23)c(OC)c1	0.0921%

SMILES	hERG current change (%, negative = inhibition) at 1uM
CCOC(=O)N1CCN(Cc2nc3c(c(=O)n(C)c(=O)n3C)n2CCCc2ccccc2)CC1	-9.67%
O=C1COCCOCCOCCOCC(=O)NCCN1	14%
NC(=O)C1=C[C@H](c2ccccc2)C[C@H](OCc2ccc(CO)cc2)O1	12.9%
CN(Cc1cccc(F)c1)CC(O)COCc1ccccc1Cl (centres unmarked)	2.83%
CN(C(=S)Nc1ccc(Oc2ccccc2)cc1)c1ccc(O)cc1	5.67%
Clc1ccccc1CN(Cc1ccccc1)c1ncnc2nc[nH]c12	27.7%
CCc1ccc(NC(=O)c2ccccc2SC)cc1	6.12%
COc1cccc(C(=O)Nc2cccc(OCC(=O)O)c2)c1	10.5%
Cc1ccc2sc(N(CCN(C)C)C(=O)/C=C/c3cccs3)nc2c1C.Cl	15.7%
O=C(NCc1cccs1)c1ccc(N2CCCCC2)nc1	2.34%
COc1ccc(OC)c(-c2csc(N(CC3CCCO3)C(=O)Cc3ccccc3)n2)c1 (centres unmarked)	13.6%
COc1ccc(N2CCN(C(=O)COC(=O)c3ccc(Cl)nc3)CC2)cc1	14.1%
CC(C)c1ccc(C(=O)NNC(=O)C2C3CCC(C3)C2C(=O)O)cc1 (centres unmarked)	-1.94%
Cc1ccc(-n2nc3c(=O)n(CCCC(=O)NCc4ccc(Cl)cc4)nc(C)c3c2C)cc1	8.96%
O=C(c1cc(S(=O)(=O)N2CCCCC2)ccc1N1CCOCC1)N1CCN(Cc2ccccc2)CC1	9.4%
COc1ccc2nc3sc(C(=O)NCCN4CCc5ccccc5C4)cc3cc2c1	-7.11%
CN(C)S(=O)(=O)c1ccc(N2CCCC2)c(C(=O)Nc2ccccc2Br)c1	-26.8%
O=C(CSc1nnnn1-c1cccc2c1CCCC2)N1CCCCC1	-0.697%
COc1ccc(C2=NS(=O)(=O)N(C)C(C(=O)Nc3cc(C)ccc3O)=C2)cc1OC	-4.56%
Cc1ccc(NC(=O)CS(=O)CC(=O)NCC2OCCc3ccccc32)c(C)c1 (centres unmarked)	5.82%
Nc1nc(Nc2ccccc2F)nc(NCc2ccccc2)c1[N+](=O)[O-]	13%
CS(=O)(=O)N(CC(=O)N/N=C/c1cc2c(cc1Br)OCO2)c1ccccc1Br	1.19%

SMILES	hERG current change (%, negative = inhibition) at 1uM
O=C(NCc1cn2ccccc2n1)c1ccc2c(c1)OCO2	14.2%
COc1ccc(NC(=O)c2ccc3[nH]c(C)c(C)c3c2)cc1	11.1%
CC1(C)COC(c2cc([N+](=O)[O-])ccc2Cl)=N1	4.69%
N#Cc1c(-c2ccccc2)nc(SCC(=O)Nc2ccccc2)[nH]c1=O	2.31%
O=C(CCl)N(Cc1cc(=O)[nH]c2ccccc12)c1ccccc1	5.59%
Cc1cc(C)c(C#N)c(N2CCN(Cc3ccccc3)CC2)n1	-3.66%
Cc1ccccc1CCN(C(=O)c1csnn1)C(C(=O)NC1CCCC1)c1ccco1 (centres unmarked)	12.4%
COc1cccc(CNC(=O)CCC2CCCN(C(=O)c3cccnc3SC)C2)c1 (centres unmarked)	15.7%
CC(=O)Nc1ccc(S(=O)(=O)NCCOc2ccc(Cl)cc2C)cc1	10.8%
CCOc1cccc(-c2nn3c(-c4cc(C)[nH]n4)nnc3s2)c1	-8.21%
O=C(Nc1ncccc1O)c1ccc(S(=O)(=O)N2CCCC2)cc1	11.8%
CN(Cc1ccccn1)Cc1nc(Cc2ccccc2Cl)no1	1.03%
COc1cc2c(=O)c(-c3ccc(O)cc3)coc2cc1OC1OC(CO)C(O)C(O)C1O (centres unmarked)	15.4%
Cc1ccc2c(c1)C(c1ccccc1)N(C(=O)c1ccc(Br)o1)CC(=O)N2 (centres unmarked)	-17.7%
CN(C)CCCN(C(=O)c1ccco1)c1nc2c(F)cccc2s1.Cl	-62.9%
Cc1ccc2nc(/C(C#N)=C\c3ccc(Oc4ccc([N+](=O)[O-])cn4)cc3)[nH]c2c1	16.9%
CC(C)CSC1=NSC2=NC(=O)/C(=C\c3coc4ccccc4c3=O)C(=N)N12	10.1%
CCOc1ccc(N2CC(=O)N(c3ccc(OCC)cc3)CC2=O)cc1	-19.4%
Nc1nc(-c2cccnc2)nn1S(=O)(=O)c1ccccc1	14%
COc1ccc(N(CC(=O)NCCSc2ccccn2)S(C)(=O)=O)cc1Cl	-1.02%
COCc1ccc(C(=O)N(C)CC2CCCN(CCc3ccccc3F)C2)o1 (centres unmarked)	-11.7%
c1nc(NC2CCCCC2)c2[nH]cnc2n1	1.6%

SMILES	hERG current change (%, negative = inhibition) at 1uM
COc1cccc(SCc2noc(C(=O)NCC3CC3)c2C(=O)NCC2CC2)c1	-0.807%
Cc1ccc(NC(=S)NNC(=O)c2nn(C)c(C)c2Cl)cc1	5.27%
COc1ccc(C(c2nnnn2Cc2ccccc2)N2CCN(c3nc4ccccc4s3)CC2)cc1OC.Cl (centres unmarked)	-1.68%
O=C(Cc1ccccc1)c1ccc(Cl)cc1	13.2%
CCn1c(CNC(=O)c2ccco2)nnc1SCC(=O)c1ccc(F)cc1	11.6%
C=CCN1C(=O)C2(NC(=O)c3ccccc3N2)c2ccccc21 (centres unmarked)	5.82%
Cc1cccc(C)c1NC1=NCCCCS1	-2.45%
COc1cc(C(=O)N/C(=C\c2cn(C)c3ccccc23)C(=O)NCCCn2ccnc2)cc(OC)c1OC	8.83%
CCCCOc1ccc(-c2c(C#N)c(N)[nH]c(=S)c2C#N)cc1	13.7%
O=C(O)Cc1ccc(NC(=O)COc2ccc3ccccc3c2)cc1	9.36%
COc1ccccc1OCCn1ccnc1	14.4%
CC(=O)c1cccc(NC(=O)c2ccncc2)c1	-0.871%
Cc1ccc(C2C(=O)N(C3CCC(C)CC3)CC(=O)N2C2CC2)cc1 (centres unmarked)	0.0248%
CCOC(=O)N1CCN(C(c2ccc(F)cc2)c2sc3nc(C)nn3c2O)CC1 (centres unmarked)	4.66%
CN(Cc1nc2ccccc2c(=O)[nH]1)CC(O)COCc1ccco1 (centres unmarked)	3.53%
O=C(CCNC(=O)c1ccc(Br)cc1)NNC(=O)c1ccccc1O	6.62%
Cc1ccc(CNC(=O)C2CN(S(C)(=O)=O)c3cc(Cl)ccc3O2)cc1 (centres unmarked)	-7.01%
COc1cccc(NC(=S)N(Cc2ccccn2)Cc2ccccc2Cl)c1	8.48%
Cc1ccc(Cn2nnc3c(=O)[nH]c(C4CCN(C(=O)c5cccs5)CC4)nc32)cc1	-2.57%
CCCSC1=C(C#N)C(c2ccccc2C)C(C(=O)OC)C(=O)N1 (centres unmarked)	16.2%
